“And” between values parts separate entries of the source, which are not always exact repeats. Identical values can stand only once. ± gives the uncertainty stated by the source. Further values from the same series stand in other lists.
Test: xn = mol fraction of the nth substance listed

CCCO + O
Conditions | viscosity
308.15 K, 100 kPa, x1 = 0.629 | 1.712 ± 0.071 mPa·s
308.15 K, 100 kPa, x1 = 0.73 | 1.632 ± 0.068 mPa·s
308.15 K, 100 kPa, x1 = 0.851 | 1.577 ± 0.065 mPa·s
308.15 K, 101 kPa, x1 = 0.0738 | 1.309 ± 0.014 mPa·s
308.15 K, 101 kPa, x1 = 0.1 | 1.535 ± 0.014 mPa·s
308.15 K, 101 kPa, x1 = 0.2 | 1.887 ± 0.017 mPa·s
308.15 K, 101 kPa, x1 = 0.3 | 1.964 ± 0.017 mPa·s
308.15 K, 101 kPa, x1 = 0.3067 | 1.967 ± 0.02 mPa·s
308.15 K, 101 kPa, x1 = 0.5 | 1.857 ± 0.015 mPa·s
308.15 K, 101 kPa, x1 = 0.5764 | 1.695 ± 0.017 mPa·s
308.15 K, 101 kPa, x1 = 0.6 | 1.78 ± 0.015 mPa·s
308.15 K, 101 kPa, x1 = 0.6817 | 1.704 ± 0.017 mPa·s
308.15 K, 101 kPa, x1 = 0.7 | 1.703 ± 0.014 mPa·s
308.15 K, 101 kPa, x1 = 0.8 | 1.644 ± 0.013 mPa·s
308.15 K, 101 kPa, x1 = 0.819 | 1.622 ± 0.015 mPa·s
308.15 K, 101 kPa, x1 = 0.9 | 1.581 ± 0.011 mPa·s and 1.594 ± 0.013 mPa·s
308.15 K, 101.33 kPa, x1 = 0.03223 | 1.019 ± 0.011 mPa·s
308.15 K, 101.33 kPa, x1 = 0.06972 | 1.33 ± 0.014 mPa·s
308.15 K, 101.33 kPa, x1 = 0.1139 | 1.6 ± 0.017 mPa·s
308.15 K, 101.33 kPa, x1 = 0.1666 | 1.793 ± 0.02 mPa·s
308.15 K, 101.33 kPa, x1 = 0.4116 | 1.902 ± 0.02 mPa·s
308.15 K, 101.33 kPa, x1 = 0.5453 | 1.802 ± 0.019 mPa·s
308.15 K, 101.33 kPa, x1 = 0.7296 | 1.662 ± 0.017 mPa·s
308.15 K, 101.33 kPa, x1 = 0.8507 | 1.593 ± 0.016 mPa·s
312.95 K, 101.33 kPa, x1 = 0.0555 | 1.081 ± 0.002 mPa·s
312.95 K, 101.33 kPa, x1 = 0.1134 | 1.399 ± 0.002 mPa·s
312.95 K, 101.33 kPa, x1 = 0.1383 | 1.488 ± 0.002 mPa·s
312.95 K, 101.33 kPa, x1 = 0.1644 | 1.563 ± 0.002 mPa·s
312.95 K, 101.33 kPa, x1 = 0.1938 | 1.623 ± 0.002 mPa·s
312.95 K, 101.33 kPa, x1 = 0.3109 | 1.705 ± 0.002 mPa·s
312.95 K, 101.33 kPa, x1 = 0.5696 | 1.58 ± 0.002 mPa·s
312.95 K, 101.33 kPa, x1 = 0.7354 | 1.488 ± 0.002 mPa·s
313.15 K, 100 kPa, x1 = 0.2014 | 1.618 ± 0.034 mPa·s
313.15 K, 101 kPa, x1 = 0.0738 | 1.132 ± 0.012 mPa·s
313.15 K, 101 kPa, x1 = 0.1 | 1.333 ± 0.012 mPa·s
313.15 K, 101 kPa, x1 = 0.2 | 1.636 ± 0.014 mPa·s
313.15 K, 101 kPa, x1 = 0.3 | 1.705 ± 0.015 mPa·s
313.15 K, 101 kPa, x1 = 0.3067 | 1.706 ± 0.017 mPa·s
313.15 K, 101 kPa, x1 = 0.5764 | 1.48 ± 0.015 mPa·s
313.15 K, 101 kPa, x1 = 0.6 | 1.566 ± 0.013 mPa·s
313.15 K, 101 kPa, x1 = 0.6817 | 1.512 ± 0.015 mPa·s
313.15 K, 101 kPa, x1 = 0.7 | 1.504 ± 0.012 mPa·s
313.15 K, 101 kPa, x1 = 0.8 | 1.437 ± 0.01 mPa·s and 1.457 ± 0.012 mPa·s
313.15 K, 101 kPa, x1 = 0.819 | 1.447 ± 0.014 mPa·s
313.15 K, 101 kPa, x1 = 0.9 | 1.405 ± 0.01 mPa·s and 1.42 ± 0.011 mPa·s
313.15 K, 101.3 kPa, x1 = 0.0908 | 1.29 ± 0.17 mPa·s
313.15 K, 101.3 kPa, x1 = 0.2306 | 1.66 ± 0.2 mPa·s
313.15 K, 101.3 kPa, x1 = 0.7296 | 1.49 ± 0.12 mPa·s
313.15 K, 101.33 kPa, x1 = 0.0322 | 0.926 ± 0.0093 mPa·s
313.15 K, 101.33 kPa, x1 = 0.03223 | 0.902 ± 0.009 mPa·s
313.15 K, 101.33 kPa, x1 = 0.06972 | 1.159 ± 0.012 mPa·s
313.15 K, 101.33 kPa, x1 = 0.1139 | 1.384 ± 0.014 mPa·s
313.15 K, 101.33 kPa, x1 = 0.114 | 1.423 ± 0.014 mPa·s
313.15 K, 101.33 kPa, x1 = 0.1666 | 1.545 ± 0.016 mPa·s
313.15 K, 101.33 kPa, x1 = 0.2306 | 1.655 ± 0.017 mPa·s
313.15 K, 101.33 kPa, x1 = 0.231 | 1.718 ± 0.017 mPa·s
313.15 K, 101.33 kPa, x1 = 0.412 | 1.739 ± 0.017 mPa·s
313.15 K, 101.33 kPa, x1 = 0.5453 | 1.574 ± 0.016 mPa·s
313.15 K, 101.33 kPa, x1 = 0.7296 | 1.467 ± 0.015 mPa·s
313.15 K, 101.33 kPa, x1 = 0.8507 | 1.414 ± 0.014 mPa·s
317.92 K, 101.33 kPa, x1 = 0.0555 | 0.953 ± 0.002 mPa·s
317.92 K, 101.33 kPa, x1 = 0.1134 | 1.224 ± 0.002 mPa·s
317.92 K, 101.33 kPa, x1 = 0.1383 | 1.229 ± 0.002 mPa·s
317.92 K, 101.33 kPa, x1 = 0.1644 | 1.367 ± 0.002 mPa·s
317.92 K, 101.33 kPa, x1 = 0.1938 | 1.416 ± 0.002 mPa·s
317.92 K, 101.33 kPa, x1 = 0.2288 | 1.456 ± 0.002 mPa·s
317.92 K, 101.33 kPa, x1 = 0.3109 | 1.488 ± 0.002 mPa·s
317.92 K, 101.33 kPa, x1 = 0.4189 | 1.467 ± 0.002 mPa·s
317.92 K, 101.33 kPa, x1 = 0.5696 | 1.393 ± 0.002 mPa·s
317.92 K, 101.33 kPa, x1 = 0.7354 | 1.317 ± 0.002 mPa·s
318.15 K, 100 kPa, x1 = 0.025 | 0.738 ± 0.047 mPa·s
318.15 K, 100 kPa, x1 = 0.0917 | 1.101 ± 0.071 mPa·s
318.15 K, 100 kPa, x1 = 0.191 | 1.403 ± 0.089 mPa·s
318.15 K, 101 kPa, x1 = 0.0738 | 0.9864 ± 0.011 mPa·s
318.15 K, 101 kPa, x1 = 0.1 | 1.169 ± 0.011 mPa·s
318.15 K, 101 kPa, x1 = 0.1925 | 1.417 ± 0.015 mPa·s
318.15 K, 101 kPa, x1 = 0.2 | 1.431 ± 0.013 mPa·s
318.15 K, 101 kPa, x1 = 0.3 | 1.492 ± 0.013 mPa·s
318.15 K, 101 kPa, x1 = 0.3067 | 1.492 ± 0.015 mPa·s
318.15 K, 101 kPa, x1 = 0.4 | 1.474 ± 0.013 mPa·s
318.15 K, 101 kPa, x1 = 0.4143 | 1.457 ± 0.015 mPa·s
318.15 K, 101 kPa, x1 = 0.5 | 1.429 ± 0.012 mPa·s
318.15 K, 101 kPa, x1 = 0.5764 | 1.288 ± 0.013 mPa·s
318.15 K, 101 kPa, x1 = 0.6 | 1.383 ± 0.011 mPa·s
318.15 K, 101 kPa, x1 = 0.6817 | 1.337 ± 0.013 mPa·s
318.15 K, 101 kPa, x1 = 0.7 | 1.334 ± 0.011 mPa·s
318.15 K, 101 kPa, x1 = 0.8 | 1.278 ± 0.009 mPa·s and 1.298 ± 0.01 mPa·s
318.15 K, 101 kPa, x1 = 0.819 | 1.288 ± 0.012 mPa·s
318.15 K, 101 kPa, x1 = 0.9 | 1.254 ± 0.009 mPa·s and 1.268 ± 0.01 mPa·s
322.95 K, 101.33 kPa, x1 = 0.0555 | 0.847 ± 0.002 mPa·s
322.95 K, 101.33 kPa, x1 = 0.1134 | 1.082 ± 0.002 mPa·s
322.95 K, 101.33 kPa, x1 = 0.1644 | 1.203 ± 0.002 mPa·s
322.95 K, 101.33 kPa, x1 = 0.1938 | 1.248 ± 0.002 mPa·s
322.95 K, 101.33 kPa, x1 = 0.2288 | 1.282 ± 0.002 mPa·s
322.95 K, 101.33 kPa, x1 = 0.3109 | 1.311 ± 0.002 mPa·s
322.95 K, 101.33 kPa, x1 = 0.5696 | 1.236 ± 0.002 mPa·s
323.15 K, 100 kPa, x1 = 0.15 | 1.187 ± 0.05 mPa·s
323.15 K, 100 kPa, x1 = 0.25 | 1.321 ± 0.055 mPa·s and 1.323 ± 0.054 mPa·s
323.15 K, 100 kPa, x1 = 0.3 | 1.317 ± 0.054 mPa·s
323.15 K, 100 kPa, x1 = 0.4 | 1.315 ± 0.054 mPa·s
323.15 K, 100 kPa, x1 = 0.5 | 1.266 ± 0.052 mPa·s
323.15 K, 101 kPa, x1 = 0.0738 | 0.8639 ± 0.01 mPa·s
323.15 K, 101 kPa, x1 = 0.1 | 1.034 ± 0.0098 mPa·s
323.15 K, 101 kPa, x1 = 0.1925 | 1.24 ± 0.016 mPa·s
323.15 K, 101 kPa, x1 = 0.3 | 1.315 ± 0.012 mPa·s
323.15 K, 101 kPa, x1 = 0.4143 | 1.275 ± 0.014 mPa·s
323.15 K, 101 kPa, x1 = 0.5 | 1.268 ± 0.011 mPa·s
323.15 K, 101 kPa, x1 = 0.6 | 1.23 ± 0.01 mPa·s
323.15 K, 101 kPa, x1 = 0.7 | 1.19 ± 0.0099 mPa·s
323.15 K, 101 kPa, x1 = 0.8 | 1.142 ± 0.008 mPa·s and 1.161 ± 0.0095 mPa·s
323.15 K, 101 kPa, x1 = 0.819 | 1.144 ± 0.011 mPa·s
323.15 K, 101 kPa, x1 = 0.9 | 1.138 ± 0.0092 mPa·s
323.15 K, 101.33 kPa, x1 = 0.0322 | 0.767 ± 0.0077 mPa·s
323.15 K, 101.33 kPa, x1 = 0.03223 | 0.726 ± 0.008 mPa·s
323.15 K, 101.33 kPa, x1 = 0.06972 | 0.907 ± 0.01 mPa·s
323.15 K, 101.33 kPa, x1 = 0.1139 | 1.072 ± 0.012 mPa·s
323.15 K, 101.33 kPa, x1 = 0.1666 | 1.191 ± 0.013 mPa·s
323.15 K, 101.33 kPa, x1 = 0.2306 | 1.274 ± 0.014 mPa·s
323.15 K, 101.33 kPa, x1 = 0.231 | 1.335 ± 0.013 mPa·s
323.15 K, 101.33 kPa, x1 = 0.4116 | 1.276 ± 0.014 mPa·s
323.15 K, 101.33 kPa, x1 = 0.412 | 1.351 ± 0.014 mPa·s
323.15 K, 101.33 kPa, x1 = 0.5453 | 1.233 ± 0.013 mPa·s
323.15 K, 101.33 kPa, x1 = 0.7296 | 1.165 ± 0.012 mPa·s

Reference: the CheMixHub viscosity set
